In all, about 45,000 compounds went through this assay and about 65 (0.1%) were called active. Calls follow the shape of the dose curve; as a rule, active = well fitted activation curve with a large enough effect; inconclusive = small, poorly fitted or top-dose-only effect; inactive = no such curve, though single readings can be large or run the other way. The list shows a part of the results.
Molecular target: Galactocerebrosidase (Homo sapiens) (UniProt P54803)
Assay: A Novel Cell-Based Assay to Identify Small Molecules for B -Galactocerebrosidase; also: 0% is about no effect; nearly all actives have a fitted effect of over 65% in size
Details: 145M-Twi-hGALC-G270D cells (Twitcher mouse brain line with human GALC G270D), HMU-beta-Gal fluorescence, 48 h; series mostly up to 57.5 µM; activation: at the top concentration
Procedure, shortened: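 Fluorogenic HMU-b-Gal hydrolysis (0.1 mM final, pH 5.2 citrate-phosphate with 1 mg/mL sodium taurocholate; carbonate stop buffer) measures mutant GALC activity after compound treatment of live 145M-Twi Twitcher brain cells stably carrying human GALC-G270D, with wild-type GALC line alongside; activation sought.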

Sequence of UniProt P54803 (P54803 whole entry, looked up): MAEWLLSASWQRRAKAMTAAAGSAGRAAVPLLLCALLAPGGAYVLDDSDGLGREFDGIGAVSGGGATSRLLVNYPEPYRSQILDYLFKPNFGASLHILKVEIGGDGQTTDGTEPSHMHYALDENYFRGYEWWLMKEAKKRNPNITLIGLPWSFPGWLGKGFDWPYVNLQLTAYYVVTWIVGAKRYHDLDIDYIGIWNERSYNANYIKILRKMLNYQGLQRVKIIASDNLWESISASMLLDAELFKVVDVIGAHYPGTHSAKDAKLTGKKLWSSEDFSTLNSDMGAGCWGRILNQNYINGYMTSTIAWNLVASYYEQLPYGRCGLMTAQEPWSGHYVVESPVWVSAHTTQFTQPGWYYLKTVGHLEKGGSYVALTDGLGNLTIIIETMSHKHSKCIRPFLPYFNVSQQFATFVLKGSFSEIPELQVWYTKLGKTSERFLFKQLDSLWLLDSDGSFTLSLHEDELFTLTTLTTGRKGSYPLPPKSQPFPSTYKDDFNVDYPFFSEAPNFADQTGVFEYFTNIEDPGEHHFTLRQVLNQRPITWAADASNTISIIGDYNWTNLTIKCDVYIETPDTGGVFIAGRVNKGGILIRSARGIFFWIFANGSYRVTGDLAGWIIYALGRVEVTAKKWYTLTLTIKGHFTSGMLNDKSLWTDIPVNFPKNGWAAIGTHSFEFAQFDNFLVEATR

activation, inactive:
COc1ccc(OC)c(NC(=O)c2cn(CC(C)C)c(=O)c3cc(OC)c(OC)cc23)c1 -14%
Cc1ccc(CCNC(=O)c2cc3c(-c4ccccc4F)nn(C)c3s2)cc1 -0.428%
O=C(Nc1ccc2oc(-c3ccc4ccccc4c3)nc2c1)c1ccc(Cl)c(Cl)c1 -19.5%
CCOc1ccccc1Nc1sc(C(=O)c2ccccc2)c(N)c1S(=O)(=O)c1ccc(C)cc1 -4.62%
O=C(Nc1ccc(C(=O)OCc2cc(=O)n3nc(C4CC4)sc3n2)cc1)c1cccc(F)c1 -1.62%
CCN(c1ccccc1)S(=O)(=O)c1ccc(NC(=O)c2cc(=O)c3ccccc3o2)cc1 16.4%
CCOc1ccc(-c2oc3ccc(C)cc3c(=O)c2O)cc1 -16.7%
Fc1ccc(Nc2ncnc3c2nc2n3CCCCC2)c(F)c1 -3.22%
COCCCNC(=O)c1ccc2c(c1)nc(C)n2-c1cccc(C)c1 -15.8%
Cc1c(C(=O)OC2CCCCC2)[nH]c2c1C(=O)CC(c1ccc(C(C)(C)C)cc1)C2 (stereo not given) -10%
CCCc1nnc(NC(=O)c2cc(=O)c3cc(C)c(C)cc3o2)s1 -6.74%
CCC(=O)N1CCc2cc(Br)cc(S(=O)(=O)CCC(=O)N3CCN(c4cc(C)ccc4C)CC3)c21 -25.8%
COc1ccc2c(CNC3CCCCCC3)c(C(=O)O)n(Cc3ccccc3F)c2c1 -10%
CCOC(=O)c1cc(-c2ccc(OC)cc2)n(CCC(=O)NC2CCCCC2)c1C -37.2%
CCOC(=O)c1c(S(=O)(=O)N2CCC(C(=O)Nc3ncccc3C)CC2)c(C)n(C)c1C -10%
Cc1nc2cccnc2n1C1CCN(C(=O)Nc2ccccc2)CC1 -3.63%
O=C(c1ccccc1)N1CCCC(c2nc3c(nnn3Cc3ccc(F)cc3F)c(=O)[nH]2)C1 (stereo not given) -7.19%
COc1cc(C(=O)Nc2ccc(-n3c(C)nc4ccccc4c3=O)cc2)cc(OC)c1OC -29.9%
Cc1cc(C)cc(N2CC(c3nnc(NC(=O)c4ccco4)s3)CC2=O)c1 (stereo not given) -15.4%
CCSc1ncc(Cl)c(C(=O)N(Cc2ccccc2)c2ccc(OC)cc2)n1 -21.2%
COc1cc(CNCCSc2nnnn2C)ccc1OCc1ccc(C)cc1 -13%
CCOc1cccc(NC(=O)c2sc3nc(-c4ccc(F)cc4)ccc3c2N)c1 -9.82%
O=c1c(=O)n(-c2ccccc2)ccn1Cc1c(F)cccc1Cl -3.03%
O=C(COCc1cc(-c2cccs2)on1)N1CCN(c2ccc(F)cc2)CC1 -5.77%
COc1ccc(CNS(=O)(=O)c2cc(Br)cc3c2N(C(C)=O)C(C)C3)cc1 (stereo not given) -7.23%
CCOC(=O)C1CCN(C(c2ccc(OCC)cc2)c2c(O)cc(C)n(CCOC)c2=O)CC1 (stereo not given) -1.35%
O=C(NCc1cccc(F)c1)c1ccc(CN2CC(=O)N3CCCCC3C2=O)cc1 (stereo not given) -1.51%
O=c1c2oc3ccccc3c2n(Cc2ccc(F)cc2)c(=O)n1Cc1ccco1 -13.3%
Cc1nc(-c2ccc(Cl)cc2)oc1COC(C)(C)C(=O)O -11.3%
Cc1ccc(-c2noc(-c3ccc(NCc4cccnc4)c([N+](=O)[O-])c3)n2)cc1 -2.58%
CCCCn1c(=NC(=O)c2c(-c3c(F)cccc3Cl)noc2C)c(C(=O)OCC)cc2c(=O)n3ccccc3nc21 -11.5%
Cc1cccc(C(=O)NCCc2nc3ccccc3n2Cc2ccc(Cl)cc2)c1 0.3%
CC(Sc1nc2c(c(=O)[nH]1)CCCC2)C(=O)Nc1cc(C(F)(F)F)ccc1Cl (stereo not given) -11.4%
CCOC(=O)c1cccc(NS(=O)(=O)c2ccc3[nH]c4c(c3c2)CCCC4)c1 -2.97%
Cc1ccc(OC(C)C(=O)N2CCN(CCc3ccncc3)CC2)cc1C (stereo not given) -7.5%
Cc1ccc(-n2cnc3cc(C(=O)NCc4ccc(F)cc4)ccc32)c(C)c1 -9.43%
CCOC(=O)c1ccc2nc(C)cc(Nc3ccc(OC(C)C)cc3)c2c1 -25.5%
CCCCc1ccc(-n2nc3cc(Cl)c(NC(=O)c4ccc(OC)cc4)cc3n2)cc1 -0.0295%
CCOC(=O)C1CCN(c2nc3c(S(=O)(=O)c4ccccc4)nnn3c3ccc(Cl)cc23)CC1 -16%
Cc1ccc(NC(=O)CN2CCN(c3ccccc3F)CC2)cc1F -18.7%
Cc1ccc(Cn2c(C)c(CNCC(C)c3ccccc3)c(C(=O)O)c2C)cc1 (stereo not given) -3.46%
O=S(=O)(NCc1ccc(Cl)cc1)c1ccc2[nH]c3c(c2c1)CCCC3 -3.43%
CCOc1ccc(-c2cc3c(=O)n(Cc4nc(-c5ccccc5OCC)oc4C)ccn3n2)cc1Cl 16.8%
Cc1ccc(NC(=O)c2ccc(Cl)cc2Cl)c(C(=O)c2ccccc2)c1 -12.7%
COCCCNC(=O)C1CCC(Cn2c(=O)c3sccc3n(C)c2=O)CC1 (stereo not given) -17.5%
CCC(CC)C(=O)Nc1ccccc1SCc1cc(=O)c2cccc(C)c2[nH]1 -4.25%
CCOC(=O)C(CC)n1nc(C)c2c(C)n(-c3ccc(C)cc3)nc2c1=O (stereo not given) 0.842%
COc1ccc(-n2cc(-c3ccc4c(c3)OCO4)n(CC(=O)Nc3cccc(C)c3C)c2=O)c(OC)c1 -20.1%
CCCCN(CCCNC(=O)c1cc(Nc2ccc(OC)cc2)nc2ccccc12)Cc1ccccc1 -1.1%
COc1ccc(C(=O)c2sc3nc(-c4ccc(C)cc4)cc(C(F)(F)F)c3c2N)cc1 -26%
Cc1ccc(C)c(N2CCN(S(=O)(=O)c3ccc(-c4coc(C)n4)cc3)CC2)c1 -38.1%
COc1cc(OC)cc(C(=O)Nc2ccc(-c3nc4cc(C(C)C)ccc4o3)cc2)c1 -9.45%
CCCCc1c(C)nc2c(-c3ccc(Cl)cc3)c(C)[nH]n2c1=O -18.1%
Cc1cccc(N2CCN(C(=O)Cn3ncc4c5ccccc5n(C)c4c3=O)CC2C)c1 (stereo not given) -14.5%
COc1cc2c3cc1Oc1cc(ccc1O)C[C@@H]1c4c(cc(OC)c(O)c4Oc4ccc(cc4)C[C@@H]3N(C)CC2)CC[N+]1(C)C -21.3%
O=c1c(S(=O)(=O)c2ccccc2)cn(Cc2ccc(F)cc2)c2cc(N3CCOCC3)c(F)cc12 -30.9%
CCOC(=O)c1ccc(N2C(=O)c3n[nH]c(-c4cccs4)c3C2c2ccc(CC)cc2)cc1 (stereo not given) -21.9%
O=S(=O)(Nc1ccc(F)c(Cl)c1)c1ccc(Br)s1 -23.6%
Cc1ccc(S(=O)(=O)c2nc(S(=O)(=O)c3ccc(C)cc3)c(NCCCOC(C)C)s2)cc1 -13.9%
COc1cccc2cc(-c3nc(Nc4cccc(C)c4C)sc3C)c(=O)oc12 -8.98%
